The values that follow come from PubChem BioAssay (NCI).

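96-well plates; 48 h exposure; 5 concentrations. Endpoints by linear interpolation between flanking doses. Not reached: highest tested concentration assigned. Abbreviation: GI50, concentration required for 50% inhibition of growth. TGI is the concentration that stops growth completely.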 Where only a bound is given, the exact number is not on record here.

For this assay, the system named is NCI-H322M lung. In words: NCI anticancer screen, dose series, 48 h.
As to `CN(C)c1nc(NCCNS(=O)(=O)c2ccc(C(=O)/C=C/c3ccc(F)cc3)cc2)nc(Nc2ccc(F)cc2)n1`, the GI50 is 4.24 µM and the TGI came to 17.8 µM.

For `CCCSc1nc(Nc2ccc(S(N)(=O)=O)cc2)c(C#N)c(-c2ccc(Cl)cc2)n1`, the GI50 was 4.05 µM and the TGI was more than 100 µM.

Turning to `CN(C)CCCNC(=S)Nc1ccc(/C=C/c2ccc(Cl)cc2)cc1`, the GI50 was 1.7 µM and the TGI came out at 3.38 µM.

Take `CCN(CC)c1ccnc(CNCCSC(c2ccccc2)(c2ccccc2)c2ccc(C)cc2)c1`: the GI50 was 3.48 µM and the TGI came out at 13.1 µM.

With `COc1cc(NC(=O)c2cccc(C3CCc4c(cc(OC)c(OC)c4OC)O3)c2)cc(OC)c1OC` (stereo not given), the GI50 is 5.24 µM and the TGI was more than 100 µM.
